We go through 6 molecules from publication PMC4381080.

The chains behind the UniProt entries cited, without tags or fusion partners. Residues count along the entry.
UniProt O08984: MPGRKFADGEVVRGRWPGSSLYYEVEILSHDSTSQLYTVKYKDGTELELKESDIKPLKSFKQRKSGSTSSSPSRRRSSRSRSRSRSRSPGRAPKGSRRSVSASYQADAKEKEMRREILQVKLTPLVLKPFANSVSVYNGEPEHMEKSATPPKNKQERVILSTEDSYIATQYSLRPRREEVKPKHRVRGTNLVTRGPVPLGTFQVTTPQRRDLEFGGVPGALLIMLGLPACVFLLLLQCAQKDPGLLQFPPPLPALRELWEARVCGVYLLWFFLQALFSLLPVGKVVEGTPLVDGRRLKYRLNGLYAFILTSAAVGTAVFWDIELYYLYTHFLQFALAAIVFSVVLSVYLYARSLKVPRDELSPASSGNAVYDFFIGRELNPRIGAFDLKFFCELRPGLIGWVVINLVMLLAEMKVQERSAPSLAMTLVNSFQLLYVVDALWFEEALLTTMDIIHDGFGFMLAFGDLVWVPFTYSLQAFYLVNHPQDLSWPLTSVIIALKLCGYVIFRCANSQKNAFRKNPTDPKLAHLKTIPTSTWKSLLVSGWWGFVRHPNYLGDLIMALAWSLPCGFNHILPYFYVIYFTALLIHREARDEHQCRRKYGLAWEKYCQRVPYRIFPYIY
UniProt P20700: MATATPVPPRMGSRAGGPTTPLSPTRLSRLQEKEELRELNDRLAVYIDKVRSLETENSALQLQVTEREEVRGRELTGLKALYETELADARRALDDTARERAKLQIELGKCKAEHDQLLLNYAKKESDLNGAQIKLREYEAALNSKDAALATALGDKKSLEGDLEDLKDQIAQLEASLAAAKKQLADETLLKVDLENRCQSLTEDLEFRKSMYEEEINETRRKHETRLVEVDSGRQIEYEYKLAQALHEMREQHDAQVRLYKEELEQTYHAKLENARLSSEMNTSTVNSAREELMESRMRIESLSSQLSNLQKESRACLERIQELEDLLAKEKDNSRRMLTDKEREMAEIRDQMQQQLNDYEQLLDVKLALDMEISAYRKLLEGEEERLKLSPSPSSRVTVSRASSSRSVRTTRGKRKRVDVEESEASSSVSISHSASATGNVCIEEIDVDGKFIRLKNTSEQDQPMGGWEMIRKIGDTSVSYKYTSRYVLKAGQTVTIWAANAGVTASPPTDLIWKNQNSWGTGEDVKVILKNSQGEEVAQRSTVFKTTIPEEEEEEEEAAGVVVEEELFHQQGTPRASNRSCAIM
UniProt P48679, residues 1-647: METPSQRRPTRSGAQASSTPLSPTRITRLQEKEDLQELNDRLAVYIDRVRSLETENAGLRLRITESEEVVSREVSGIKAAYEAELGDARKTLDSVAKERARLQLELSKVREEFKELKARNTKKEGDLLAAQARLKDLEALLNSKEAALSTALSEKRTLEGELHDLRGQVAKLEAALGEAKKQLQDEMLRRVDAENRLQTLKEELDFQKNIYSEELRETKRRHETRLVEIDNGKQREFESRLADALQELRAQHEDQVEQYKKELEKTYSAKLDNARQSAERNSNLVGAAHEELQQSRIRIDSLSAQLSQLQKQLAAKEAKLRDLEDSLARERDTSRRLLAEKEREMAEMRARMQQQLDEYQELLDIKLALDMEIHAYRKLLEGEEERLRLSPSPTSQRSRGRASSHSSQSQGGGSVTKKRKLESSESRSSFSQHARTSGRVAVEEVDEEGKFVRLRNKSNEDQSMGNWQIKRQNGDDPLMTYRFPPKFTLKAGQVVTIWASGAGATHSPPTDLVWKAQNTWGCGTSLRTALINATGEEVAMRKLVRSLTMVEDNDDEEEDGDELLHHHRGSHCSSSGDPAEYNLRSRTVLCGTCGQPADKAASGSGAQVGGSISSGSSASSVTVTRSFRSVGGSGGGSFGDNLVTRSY
UniProt P02545, residues 1-646: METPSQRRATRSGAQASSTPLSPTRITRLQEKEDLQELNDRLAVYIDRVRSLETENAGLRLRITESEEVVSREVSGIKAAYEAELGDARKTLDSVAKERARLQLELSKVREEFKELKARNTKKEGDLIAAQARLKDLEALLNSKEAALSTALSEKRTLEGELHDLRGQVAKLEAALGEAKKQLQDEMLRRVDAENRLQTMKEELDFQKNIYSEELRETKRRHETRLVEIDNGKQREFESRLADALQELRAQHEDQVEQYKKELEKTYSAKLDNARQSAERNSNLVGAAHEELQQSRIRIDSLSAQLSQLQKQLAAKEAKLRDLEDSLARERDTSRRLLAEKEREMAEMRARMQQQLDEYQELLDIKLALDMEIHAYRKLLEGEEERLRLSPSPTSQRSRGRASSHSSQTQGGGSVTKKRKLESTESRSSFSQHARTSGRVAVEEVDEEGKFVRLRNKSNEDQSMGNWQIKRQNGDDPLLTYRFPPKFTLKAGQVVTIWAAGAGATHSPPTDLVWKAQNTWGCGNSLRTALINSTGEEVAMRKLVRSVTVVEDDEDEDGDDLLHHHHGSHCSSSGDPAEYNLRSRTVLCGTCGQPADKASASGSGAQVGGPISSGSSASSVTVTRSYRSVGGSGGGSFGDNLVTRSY

The target of assay [1] is T1, MBP-Cav-2 (wild type, residues 1–162) (UniProt Q2IBC5).
T1 sequence: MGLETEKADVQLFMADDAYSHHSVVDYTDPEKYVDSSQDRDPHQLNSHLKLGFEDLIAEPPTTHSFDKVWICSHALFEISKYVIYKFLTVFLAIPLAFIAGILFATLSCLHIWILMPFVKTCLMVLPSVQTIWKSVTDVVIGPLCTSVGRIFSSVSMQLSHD
Kind of assay: pull-down; in vitro binding assay: purified MBP fusions (100 μg) prebound to amylose resin, incubated with HEK293T nuclear lysates (1 mg protein, lysis buffer A with 8M urea) at 4°C for 4 h; four washes; immunoblotting; only the target purified.

Assay [2] deals with T2, pY19-Cav-2 (Tyr-19-phosphorylated caveolin-2), endogenous in Hirc-B cells (rat (endogenous in Hirc-B)) (UniProt Q2IBC5).
T2 sequence (chain, phosphotyrosine at 19): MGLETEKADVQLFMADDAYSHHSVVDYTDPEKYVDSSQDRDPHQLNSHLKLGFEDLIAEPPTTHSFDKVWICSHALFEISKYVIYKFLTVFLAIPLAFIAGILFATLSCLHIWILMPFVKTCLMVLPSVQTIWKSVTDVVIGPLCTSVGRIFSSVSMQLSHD
Kind of assay: proximity ligation; Duolink in situ PLA on fixed, permeabilized Hirc-B cells treated with or without 100 nM insulin for 30 min; pairs of primary antibodies at 4°C overnight; confocal microscopy.

Assay [3] addresses T3, emerin, endogenous in Hirc-B cells (rat (endogenous in Hirc-B)) (UniProt Q63190).
T3 sequence: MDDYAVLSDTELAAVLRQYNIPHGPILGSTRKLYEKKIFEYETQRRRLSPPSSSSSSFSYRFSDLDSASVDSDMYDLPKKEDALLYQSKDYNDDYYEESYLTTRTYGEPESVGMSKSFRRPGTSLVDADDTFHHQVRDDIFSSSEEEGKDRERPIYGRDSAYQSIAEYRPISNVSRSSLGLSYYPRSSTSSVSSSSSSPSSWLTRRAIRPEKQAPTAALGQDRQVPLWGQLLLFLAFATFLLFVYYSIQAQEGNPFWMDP
The assay is described as above.

Assay [4] has as its target T4, caveolin-2 (Cav-2), endogenous in Hirc-B cells (rat (endogenous in Hirc-B)) (UniProt Q2IBC5).
T4 sequence: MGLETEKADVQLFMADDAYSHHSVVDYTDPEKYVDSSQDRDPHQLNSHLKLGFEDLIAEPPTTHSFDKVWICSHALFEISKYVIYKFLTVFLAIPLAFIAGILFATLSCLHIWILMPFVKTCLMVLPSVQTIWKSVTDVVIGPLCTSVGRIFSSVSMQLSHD
Described as above.

Assay [5] deals with T5, MBP-Δ47–86-Cav-2 (UniProt Q2IBC5).
T5 sequence: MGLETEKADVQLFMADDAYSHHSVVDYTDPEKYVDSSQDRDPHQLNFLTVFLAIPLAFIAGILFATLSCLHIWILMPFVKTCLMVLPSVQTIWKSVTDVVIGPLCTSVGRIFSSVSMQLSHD
Kind of assay: pull-down; in vitro binding assay: purified MBP fusions (100 μg) prebound to amylose resin, incubated with HEK293T nuclear lysates (1 mg protein, lysis buffer A with 8M urea) at 4°C for 4 h; four washes; immunoblotting; only the target purified.

Assay [6] concerns the target T6, MBP-Δ1–13-Cav-2 (UniProt Q2IBC5).
T6 sequence: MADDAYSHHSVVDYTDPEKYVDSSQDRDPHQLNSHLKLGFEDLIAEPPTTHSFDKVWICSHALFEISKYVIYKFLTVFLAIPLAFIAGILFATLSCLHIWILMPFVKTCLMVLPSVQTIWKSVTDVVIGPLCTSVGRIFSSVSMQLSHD
Described as above.

Assay [7] addresses T7, MBP-Δ1–70-Cav-2 (UniProt Q2IBC5).
T7 sequence: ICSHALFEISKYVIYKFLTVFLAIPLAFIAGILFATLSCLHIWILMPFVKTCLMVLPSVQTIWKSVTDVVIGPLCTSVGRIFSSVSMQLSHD
The assay is described as above.

Assay [8] deals with T8, MBP-Δ1–46-Cav-2 (UniProt Q2IBC5).
T8 sequence: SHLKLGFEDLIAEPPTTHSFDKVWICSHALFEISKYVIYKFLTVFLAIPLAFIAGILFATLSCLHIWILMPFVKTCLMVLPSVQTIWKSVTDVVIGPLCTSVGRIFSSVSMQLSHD
Described as above.

Assay [9] has as its target T9, MBP-Δ120–162-Cav-2 (UniProt Q2IBC5).
T9 sequence: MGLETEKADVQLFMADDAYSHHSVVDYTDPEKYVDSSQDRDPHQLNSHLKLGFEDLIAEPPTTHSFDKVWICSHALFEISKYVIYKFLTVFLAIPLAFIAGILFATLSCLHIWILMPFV
Described as above.

The target of assay [10] is T10, Δ47–86-Cav-2-GFP, expressed in HEK293T cells (UniProt Q2IBC5).
T10 sequence: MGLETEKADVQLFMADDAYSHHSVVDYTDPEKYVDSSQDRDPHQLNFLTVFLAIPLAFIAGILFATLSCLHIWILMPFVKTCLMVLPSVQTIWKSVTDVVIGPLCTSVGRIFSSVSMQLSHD
Kind of assay: co-IP; nuclear lysates (lysis buffer A with 8M urea) of Cav-2-GFP- or Δ47–86-Cav-2-GFP-expressed HEK293T cells treated with or without 100 nM insulin for 30 min; immunoprecipitated with anti-GFP antibody; immunoblotting.

Assay [11] deals with T11, Cav-2-GFP (wild type), expressed in HEK293T cells (UniProt Q2IBC5).
T11 sequence: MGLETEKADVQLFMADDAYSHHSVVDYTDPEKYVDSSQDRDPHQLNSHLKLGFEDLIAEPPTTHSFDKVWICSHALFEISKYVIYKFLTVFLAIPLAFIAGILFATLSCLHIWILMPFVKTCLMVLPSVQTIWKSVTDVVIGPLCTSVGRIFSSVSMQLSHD
The assay is described as above.

For assay [12], the target named is lamin B-receptor (LBR), endogenous in Hirc-B cells (rat (endogenous in Hirc-B)) (UniProt O08984). Kind of assay: proximity ligation; Duolink in situ PLA on fixed, permeabilized Hirc-B cells treated with or without 100 nM insulin for 30 min; pairs of primary antibodies at 4°C overnight; confocal microscopy.
Assay [13] has as its target T4, caveolin-2 (Cav-2), endogenous in Hirc-B cells (rat (endogenous in Hirc-B)). Kind of assay: co-IP; nuclear lysates (lysis buffer A with 8M urea) of siLamin A/C-transfected Hirc-B cells treated with or without 100 nM insulin for 30 min; immunoprecipitated with anti-Cav-2 antibody; immunoblotting.
Assay [14] shares this target. Kind of assay: condition: only in scramble control cells (lamin A/C not depleted); co-IP; nuclear lysates (lysis buffer A with 8M urea) of scramble control-transfected Hirc-B cells treated with or without 100 nM insulin for 30 min; immunoprecipitated with anti-Cav-2 antibody; immunoblotting.

Results are given in words; binding and its absence hold for the method and conditions named. In cells and extracts the contact can be indirect. Some entries that bind do so weakly or less than the wild type. For some of these results: Sequences can lack the tags named with a protein.

Regarding “lamin B1, endogenous in HEK293T cells (from UniProt P20700 1-586)”, the binding entry in assay [1] was “no binding”.
On to “lamin A/C, endogenous in Hirc-B cells (from UniProt P48679 1-647)”, for which the binding result in [2], in assay [3] and in [4] was “binds” throughout.
For “lamin A/C, endogenous in HEK293T cells (from UniProt P02545 1-646)”, the binding entry in assay [5] is reported as “no binding”; in assay [6], “binds”; in assay [1] it was “binds”; in assay [7], “no binding”; in assay [8] it was “binds”; in assay [9], “binds”.

B1: protein-tyrosine phosphatase 1B (PTP1B), endogenous in HEK293T cells (enzyme, UniProt P18031 1-435)
chain: MEMEKEFEQIDKSGSWAAIYQDIRHEASDFPCRVAKLPKNKNRNRYRDVSPFDHSRIKLHQEDNDYINASLIKMEEAQRSYILTQGPLPNTCGHFWEMVWEQKSRGVVMLNRVMEKGSLKCAQYWPQKEEKEMIFEDTNLKLTLISEDIKSYYTVRQLELENLTTQETREILHFHYTTWPDFGVPESPASFLNFLFKVRESGSLSPEHGPVVVHCSAGIGRSGTFCLADTCLLLMDKRKDPSSVDIKKVLLEMRKFRMGLIQTADQLRFSYLAVIEGAKFIMGDSSVQDQWKELSHEDLEPPPEHIPPPPRPPKRILEPHNGKCREFFPNHQWVKEETQEDKDCPIKEEKGSPLNAAPYGIESMSQDTEVRSRVVGGSLRGAQAASPAKGEPSLPEKDEDHALSYWKPFLVNMCVATVLTAGAYLCYRFLFNSNT
In the case of B1, the values for the binding result in [10] and in assay [11] were “binds” and “no binding”, respectively.

B2: lamin B1, endogenous in Hirc-B cells (protein, UniProt P70615 1-587)
chain: MATATPVQQRAGSRASAPATPFSPTRLSRLQEKEELRELNDRLAVYIDKVRSLETENSALQLQVTEREEVRGRELTGLKALYETELADARRALDDTARERAKLQIELGKFKAEHDQLLLNYAKKESDLSGAQIKLREYEAALNSKDAALATALGDKKSLEGDLEDLKDQIAQLEASLSAAKKQLADETLLKVDLENRCQSLTEDLEFRKNMYEEEINETRRKHETRLVEVDSGRQIEYEYKLAQALHEMREQHDAQVRLYKEELEQTYHAKLENARLSSEMNTSTVNSARGGMMESRMRIESLSSQLSNLQKDSRACLERIQELEDMLAKERDNSRRMLSDKEREMAEIRDQMQQQLNDYEQLLDVKLALDMEISAYRKLLEGEEERLKLSPSPSSRVTVSRASSSRSVRTTRGKRKRVDVEESEASSSVSISHSASATGNVCIEEIDVDGKFIRLKNTSEQDQPMGGWEMIRKIGDTSVSYKYTSRYVLKAGQTVTVWAANAGVTASPPTDLIWKNQNSWGTGEDVKVVLKNSQGEEVAQRSTVFKTTIPEEEEEEEEEPIGVPLEEERFHQQGTPRASNKSCAIM
For B2, the figures for the binding result in assay [12] and in [4] were “binds” and “no binding”, respectively.

B3: protein-tyrosine phosphatase 1B (PTP1B), endogenous in Hirc-B cells (enzyme, UniProt P20417 1-432)
chain: MEMEKEFEQIDKAGNWAAIYQDIRHEASDFPCRIAKLPKNKNRNRYRDVSPFDHSRIKLHQEDNDYINASLIKMEEAQRSYILTQGPLPNTCGHFWEMVWEQKSRGVVMLNRIMEKGSLKCAQYWPQKEEKEMVFDDTNLKLTLISEDVKSYYTVRQLELENLATQEAREILHFHYTTWPDFGVPESPASFLNFLFKVRESGSLSPEHGPIVVHCSAGIGRSGTFCLADTCLLLMDKRKDPSSVDIKKVLLEMRRFRMGLIQTADQLRFSYLAVIEGAKFIMGDSSVQDQWKELSHEDLEPPPEHVPPPPRPPKRTLEPHNGKCKELFSNHQWVSEESCEDEDILAREESRAPSIAVHSMSSMSQDTEVRKRMVGGGLQSAQASVPTEEELSPTEEEQKAHRPVHWKPFLVNVCMATALATGAYLCYRVCFH
As for B3, the results for the binding result in [13] and in [14] were “binds” and “no binding”, respectively.
